# Measured values from the supplement of paper PMC8728848.
# Some of the results follow.
# B1: RegIIIalpha (Mus musculus), O09037 (protein)
# chain: MLPHLVLNSISWMLLSCLLFVFQVQGEDFQKEVPSPRTSCPMGYKAYRSHCYALVMTPKSWFQADLVCQKRPSGHLVSILSGGEASFVSSLVNGRVDNYQDIWIGLHDPTMGQQPNGGGWEWSNSDVLNYLNWDGDPSSTVNRGHCGSLTASSGFLKWGDYYCDGTLPFVCKFKQ
# Experiments:
# Assay in all cases: glycan array binding signal (z-score within array); higher = stronger binding
# Settings in all cases: glycan notation: IUPAC condensed, linker removed
# [1] = target: Man(a1-2)Man(a1-2)Man(a1-6)[Man(a1-3)]Man
# In short: (§1)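 Glycan array data came from 3228 arrays in the Consortium for Functional Glycomics database, and only arrays with an available protein sequence were kept. Glycan names were put into IUPAC-condensed notation, and columns mapping to the same glycan were averaged. The binding signal is a within-array Z-score, averaged across arrays of one protein sequence run at different concentrations or buffers and across linkers. A negative Z-score can be read as non-binding.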
# Man(a1-2)Man(a1-3)Man = target: Man(a1-2)Man(a1-3)Man
# In short: as §1
# [2] = target: Man(a1-2)Man(a1-3)[Man(a1-2)Man(a1-6)]Man
# In short: as §1
# [3] = target: Man(a1-2)Man(a1-3)[Man(a1-2)Man(a1-6)]Man(a1-6)[Man(a1-2)Man(a1-2)Man(a1-3)]Man(b1-4)GlcNAc(b1-4)GlcNAc
# In short: as §1
# [4] = target: Man(a1-2)Man(a1-3)[Man(a1-2)Man(a1-6)]Man(a1-6)[Man(a1-3)[Man(a1-6)]Man(a1-6)]Man(b1-4)GlcNAc(b1-4)GlcNAc
# In short: as §1
# [5] = target: Man(a1-2)Man(a1-3)[Man(a1-6)]Man(a1-6)[Man(a1-2)Man(a1-3)]Man(b1-4)GlcNAc(b1-4)GlcNAc
# In short: as §1
# [6] = target: Man(a1-2)Man(a1-6)[Man(a1-3)]Man(a1-6)[Man(a1-2)Man(a1-2)Man(a1-3)]Man(b1-4)GlcNAc(b1-4)GlcNAc
# In short: as §1
# Man(a1-3)[Man(a1-6)]Man = target: Man(a1-3)[Man(a1-6)]Man
# In short: as §1
# [7] = target: Man(a1-3)[Man(a1-6)]Man(a1-6)[Man(a1-3)]Man(b1-4)GlcNAc(b1-4)GlcNAc
# In short: as §1
# Neu5Ac(a2-3)Gal = target: Neu5Ac(a2-3)Gal
# In short: as §1
# [8] = target: Neu5Ac(a2-3)Gal(b1-3)GalNAc
# In short: as §1
# [9] = target: Neu5Ac(a2-3)Gal(b1-3)GalNAc6S
# In short: as §1
# [10] = target: Neu5Ac(a2-3)Gal(b1-3)GlcNAc
# In short: as §1
# [11] = target: Neu5Ac(a2-3)Gal(b1-3)[Fuc(a1-4)]GlcNAc
# In short: as §1
# [12] = target: Neu5Ac(a2-3)Gal(b1-3)[Neu5Ac(a2-3)Gal(b1-4)]GlcNAc
# In short: as §1
# [13] = target: Neu5Ac(a2-3)Gal(b1-3)[Neu5Ac(a2-6)]GalNAc
# In short: as §1
# Neu5Ac(a2-3)Gal(b1-4)Glc = target: Neu5Ac(a2-3)Gal(b1-4)Glc
# In short: as §1
# [14] = target: Neu5Ac(a2-3)Gal(b1-4)GlcNAc
# In short: as §1
# [15] = target: Neu5Ac(a2-3)Gal(b1-4)GlcNAc(b1-3)Gal(b1-4)GlcNAc
# In short: as §1
# [16] = target: Neu5Ac(a2-3)Gal(b1-4)GlcNAc(b1-3)Gal(b1-4)GlcNAc(b1-3)Gal(b1-4)GlcNAc
# In short: as §1
# [17] = target: Neu5Ac(a2-3)Gal(b1-4)GlcNAc6S
# In short: as §1
# [18] = target: Neu5Ac(a2-3)Gal(b1-4)[Fuc(a1-3)]GlcNAc
# In short: as §1
# [19] = target: Neu5Ac(a2-3)Gal(b1-4)[Fuc(a1-3)]GlcNAc(b1-3)Gal
# In short: as §1
# [20] = target: Neu5Ac(a2-3)Gal(b1-4)[Fuc(a1-3)]GlcNAc(b1-3)Gal(b1-4)GlcNAc
# In short: as §1
# [21] = target: Neu5Ac(a2-3)Gal(b1-4)[Fuc(a1-3)]GlcNAc(b1-3)Gal(b1-4)[Fuc(a1-3)]GlcNAc(b1-3)Gal(b1-4)[Fuc(a1-3)]GlcNAc
# In short: as §1
# [22] = target: Neu5Ac(a2-3)Gal(b1-4)[Fuc(a1-3)]GlcNAc6S
# In short: as §1
# [23] = target: Neu5Ac(a2-3)Gal6S(b1-4)GlcNAc
# In short: as §1
# Neu5Ac(a2-3)GalNAc = target: Neu5Ac(a2-3)GalNAc
# In short: as §1
# [24] = target: Neu5Ac(a2-3)[GalNAc(b1-4)]Gal(b1-4)Glc
# In short: as §1
# [25] = target: Neu5Ac(a2-3)[GalNAc(b1-4)]Gal(b1-4)GlcNAc
# In short: as §1
# [26] = target: Neu5Ac(a2-3)[Neu5Ac(a2-6)]GalNAc
# In short: as §1
# Neu5Ac(a2-6)Gal = target: Neu5Ac(a2-6)Gal
# In short: as §1
# Neu5Ac(a2-6)Gal(b1-4)Glc = target: Neu5Ac(a2-6)Gal(b1-4)Glc
# In short: as §1
# [27] = target: Neu5Ac(a2-6)Gal(b1-4)GlcNAc
# In short: as §1
# [28] = target: Neu5Ac(a2-6)Gal(b1-4)GlcNAc(b1-3)Gal(b1-4)GlcNAc
# In short: as §1
# [29] = target: Neu5Ac(a2-6)Gal(b1-4)GlcNAc(b1-3)Gal(b1-4)[Fuc(a1-3)]GlcNAc(b1-3)Gal(b1-4)[Fuc(a1-3)]GlcNAc
# In short: as §1
# [30] = target: Neu5Ac(a2-6)Gal(b1-4)GlcNAc6S
# In short: as §1
# Neu5Ac(a2-6)GalNAc = target: Neu5Ac(a2-6)GalNAc
# In short: as §1
# Neu5Ac(a2-8)Neu5Ac = target: Neu5Ac(a2-8)Neu5Ac
# In short: as §1
# [31] = target: Neu5Ac(a2-8)Neu5Ac(a2-3)Gal(b1-4)Glc
# In short: as §1
# [32] = target: Neu5Ac(a2-8)Neu5Ac(a2-3)[GalNAc(b1-4)]Gal(b1-4)Glc
# In short: as §1
# [33] = target: Neu5Ac(a2-8)Neu5Ac(a2-8)Neu5Ac
# In short: as §1
# [34] = target: Neu5Ac(a2-8)Neu5Ac(a2-8)Neu5Ac(a2-3)Gal(b1-4)Glc
# In short: as §1
# [35] = target: Neu5Ac(a2-8)Neu5Ac(a2-8)Neu5Ac(a2-3)[GalNAc(b1-4)]Gal(b1-4)Glc
# In short: as §1
# Neu5Ac(b1-6)GalNAc = target: Neu5Ac(b1-6)GalNAc
# In short: as §1
# [36] = target: Neu5Ac(b2-6)Gal(b1-4)GlcNAc
# In short: as §1
# [37] = target: Neu5Ac9Ac(a2-6)Gal(b1-4)GlcNAc
# In short: as §1
# [38] = target: Neu5Gc(a2-3)Gal(b1-3)GlcNAc
# In short: as §1
# [39] = target: Neu5Gc(a2-3)Gal(b1-3)[Fuc(a1-4)]GlcNAc
# In short: as §1
# Neu5Gc(a2-3)Gal(b1-4)Glc = target: Neu5Gc(a2-3)Gal(b1-4)Glc
# In short: as §1
# [40] = target: Neu5Gc(a2-3)Gal(b1-4)GlcNAc
# In short: as §1
# [41] = target: Neu5Gc(a2-3)Gal(b1-4)[Fuc(a1-3)]GlcNAc
# In short: as §1
# [42] = target: Neu5Gc(a2-6)Gal(b1-4)GlcNAc
# In short: as §1
# Neu5Gc(a2-6)GalNAc = target: Neu5Gc(a2-6)GalNAc
# In short: as §1
binder,measurement,setting,value
B1,glycan array binding signal (z-score),[1],-0.092
same,glycan array binding signal (z-score),Man(a1-2)Man(a1-3)Man,-0.091
same,glycan array binding signal (z-score),[2],-0.056
same,glycan array binding signal (z-score),[3],-0.092
same,glycan array binding signal (z-score),[4],-0.097
same,glycan array binding signal (z-score),[5],-0.101
same,glycan array binding signal (z-score),[6],-0.08
same,glycan array binding signal (z-score),Man(a1-3)[Man(a1-6)]Man,-0.088
same,glycan array binding signal (z-score),[7],-0.094
same,glycan array binding signal (z-score),Neu5Ac(a2-3)Gal,-0.031
same,glycan array binding signal (z-score),[8],-0.033
same,glycan array binding signal (z-score),[9],-0.095
same,glycan array binding signal (z-score),[10],-0.097
same,glycan array binding signal (z-score),[11],-0.096
same,glycan array binding signal (z-score),[12],-0.086
same,glycan array binding signal (z-score),[13],-0.076
same,glycan array binding signal (z-score),Neu5Ac(a2-3)Gal(b1-4)Glc,-0.094
same,glycan array binding signal (z-score),[14],-0.096
same,glycan array binding signal (z-score),[15],-0.096
same,glycan array binding signal (z-score),[16],0.002
same,glycan array binding signal (z-score),[17],-0.085
same,glycan array binding signal (z-score),[18],-0.054
same,glycan array binding signal (z-score),[19],-0.1
same,glycan array binding signal (z-score),[20],-0.048
same,glycan array binding signal (z-score),[21],-0.026
same,glycan array binding signal (z-score),[22],-0.056
same,glycan array binding signal (z-score),[23],-0.096
same,glycan array binding signal (z-score),Neu5Ac(a2-3)GalNAc,-0.08
same,glycan array binding signal (z-score),[24],-0.092
same,glycan array binding signal (z-score),[25],-0.057
same,glycan array binding signal (z-score),[26],-0.085
same,glycan array binding signal (z-score),Neu5Ac(a2-6)Gal,-0.102
same,glycan array binding signal (z-score),Neu5Ac(a2-6)Gal(b1-4)Glc,-0.09
same,glycan array binding signal (z-score),[27],-0.083
same,glycan array binding signal (z-score),[28],-0.095
same,glycan array binding signal (z-score),[29],-0.042
same,glycan array binding signal (z-score),[30],-0.07
same,glycan array binding signal (z-score),Neu5Ac(a2-6)GalNAc,-0.058
same,glycan array binding signal (z-score),Neu5Ac(a2-8)Neu5Ac,-0.095
same,glycan array binding signal (z-score),[31],-0.096
same,glycan array binding signal (z-score),[32],-0.042
same,glycan array binding signal (z-score),[33],-0.078
same,glycan array binding signal (z-score),[34],-0.055
same,glycan array binding signal (z-score),[35],-0.083
same,glycan array binding signal (z-score),Neu5Ac(b1-6)GalNAc,-0.099
same,glycan array binding signal (z-score),[36],-0.097
same,glycan array binding signal (z-score),[37],-0.089
same,glycan array binding signal (z-score),[38],-0.095
same,glycan array binding signal (z-score),[39],-0.011
same,glycan array binding signal (z-score),Neu5Gc(a2-3)Gal(b1-4)Glc,-0.092
same,glycan array binding signal (z-score),[40],-0.099
same,glycan array binding signal (z-score),[41],-0.075
same,glycan array binding signal (z-score),[42],-0.1
same,glycan array binding signal (z-score),Neu5Gc(a2-6)GalNAc,-0.098
